Results as given in patent US20080275078A1, “Pyrazolo[3,4-B] Pyridine Compounds and Their Use as Pde4 Inhibitors” (Glaxo Group Limited, priority 2004, published 2008).
Some entries share one result that the patent states for a list of compounds.

Biological target: T1, PDE4B (human recombinant) (Homo sapiens, UniProt Q07343)
T1 construct: made in house; host or cells: Saccharomyces cerevisiae strain GL62 (PDE-deficient yeast), 100,000xg supernatant of cell lysate, as described in WO 94/20079
Assay: Inhibition of PDE4B activity (SPA or FP assay)
Format: biochemical
Conditions: SPA or FP assay or similar; n=1 or average of 2 or more readings; range given for the listed group of Examples
Excerpt: Human recombinant PDE4B, in particular the 2B splice variant thereof (HSPDE4B2B), is disclosed in WO 94/20079 and also M. M. McLaughlin et al., “A low Km, rolipram-sensitive, cAMP-specific phosphodiesterase from human brain: cloning and expression of cDNA, biochemical characterisation of recombinant protein, and tissue distribution of mRNA”, J. Biol. Chem., 1993, 268, 6470-6476. For example, in Example 1 of WO 94/20079, human recombinant PDE4B is described as being expressed in the PDE-deficient yeast Saccharomyces cerevisiae strain GL62, e.g. after induction by addition of 150 uM CuSO4, and 100,000×g supernatant fractions of yeast cell lysates are described for use in the harvesting of PDE4B enzyme.
The ability of compounds to inhibit catalytic activity at PDE4B or 4D (human recombinant), PDE3 (from bovine aorta), PDE5 (human recombinant) or PDE6 (from bovine retina) can optionally be determined by Scintillation Proximity Assay (SPA) in a 96-well format. • Test compounds (as a solution in DMSO, preferably about 2 microlitre (ul) volume of DMSO solution) are preincubated at ambient temperature (room temperature, e.g. 19-23° C.) in Wallac Isoplates (code 1450-514) with PDE enzyme in 50 mM Tris-HCl buffer pH 7.5, 8.3 mM MgCl2, 1.7 mM EGTA, 0.05% (w/v) bovine serum albumin for 10-30 minutes (usually 30 minutes). The enzyme concentration is adjusted so that no more than 20% hydrolysis of the substrate defined below occurs in control wells without compound, during the incubation. For the PDE3, PDE4B and PDE4D assays, [5′,8-^3H]Adenosine 3′,5′-cyclic phosphate (Amersham Pharmacia Biotech, code TRK.559; or Amersham Biosciences UK Ltd, Pollards Wood, Chalfont St Giles, Buckinghamshire HP8 4SP, UK) is added to give 0.05 uCi per well and about 10 nM final concentration. For the PDE5 and PDE6 assays, [8-^3H]Guanosine 3′,5′-cyclic phosphate (Amersham Pharmacia Biotech, code TRK.392) is added to give 0.05 uCi per well and about 36 nM final concentration. Plates containing assay mixture, preferably approx. 100 ul volume of assay mixture, are mixed on an orbital shaker for 5 minutes and incubated at ambient temperature for 1 hour. Phosphodiesterase SPA beads (Amersham Pharmacia Biotech, code RPNQ 0150) are added (about 1 mg per well) to terminate the assay. Plates are sealed and shaken and allowed to stand at ambient temperature for 35 minutes to 1 hour (preferably 35 minutes) to allow the beads to settle. Bound radioactive product is measured using a WALLAC TRILUX 1450 Microbeta scintillation counter. For inhibition curves, 10 concentrations (e.g. 1.5 nM-30 uM) of each compound are assayed. Curves are analysed using ActivityBase and XLfit (ID Business Solutions Limited, 2 Ocean Court, Surrey Research Park, Guildford, Surrey GU2 7QB, United Kingdom) Results are expressed as pIC50 values.
The ability of compounds to inhibit catalytic activity at PDE4B (human recombinant) or PDE4D (human recombinant) can optionally be determined by IMAP Fluorescence Polarisation (FP) assay (IMAP Explorer kit, available from Molecular Devices Corporation, Sunnydale, Calif., USA; Molecular Devices code: R8062) in a 384-well format.
The IMAP FP assay is able to measure PDE activity in an homogenous, non-radioactive assay format. The FP assay uses the ability of immobilised trivalent metal cations, coated onto nanoparticles (tiny beads), to bind the phosphate group of Fl-AMP that is produced on the hydrolysis of fluorescein-labelled (Fl) cyclic adenosine mono-phosphate (Fl-cAMP) to the non-cyclic Fl-AMP form. […] Binding of Fl-AMP product to the beads (coated with the immobilised trivalent cations) slows the rotation of the bound Fl-AMP and leads to an increase in the fluorescence polarisation ratio of parallel to perpendicular light. Inhibition of the PDE reduces/inhibits this signal increase. […]

T1 sequence (Q07343 1-564 isoform Q07343-2): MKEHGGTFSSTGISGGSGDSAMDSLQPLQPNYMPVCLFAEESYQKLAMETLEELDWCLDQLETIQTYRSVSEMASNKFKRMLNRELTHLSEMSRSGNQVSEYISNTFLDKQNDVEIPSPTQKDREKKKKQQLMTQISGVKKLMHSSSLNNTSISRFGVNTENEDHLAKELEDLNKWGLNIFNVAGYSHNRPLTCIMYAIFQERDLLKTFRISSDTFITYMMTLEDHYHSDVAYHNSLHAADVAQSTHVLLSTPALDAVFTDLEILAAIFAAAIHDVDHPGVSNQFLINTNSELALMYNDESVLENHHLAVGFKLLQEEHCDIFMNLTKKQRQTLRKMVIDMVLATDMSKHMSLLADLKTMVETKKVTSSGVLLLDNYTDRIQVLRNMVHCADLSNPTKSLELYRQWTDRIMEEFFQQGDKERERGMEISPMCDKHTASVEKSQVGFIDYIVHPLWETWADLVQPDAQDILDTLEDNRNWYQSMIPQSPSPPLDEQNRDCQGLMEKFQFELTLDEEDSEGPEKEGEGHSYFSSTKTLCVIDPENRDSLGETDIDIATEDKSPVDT

Row | SMILES | PDE4B pIC50 (±about 0.5)
1 | CCn1ncc2c(NC3CCN(C(N)=O)CC3)c(C(=O)NCc3ccccc3-c3cccc(C)c3)cnc21 [Example 31, 4-{[1-(aminocarbonyl)-4-piperidinyl]amino}-1-ethyl-N-[(3′-methyl-2-biphenylyl)methyl]-1H-pyrazolo[3,4-b]pyridine-5-carboxamide] | 8.2 to 9.6
2 | CCn1ncc2c(NC3CCN(C(N)=O)CC3)c(C(=O)NCc3ccccc3-c3cccc(OC)c3)cnc21 [Example 32, 4-{[1-(aminocarbonyl)-4-piperidinyl]amino}-1-ethyl-N-{[3′-(methyloxy)-2-biphenylyl]methyl}-1H-pyrazolo[3,4-b]pyridine-5-carboxamide] | 8.2 to 9.6
3 | CCn1ncc2c(NC3CCN(C(N)=O)CC3)c(C(=O)NCc3ccccc3-c3ccc(Cl)cc3)cnc21 [Example 34, 4-{[1-(aminocarbonyl)-4-piperidinyl]amino}-N-[(4′-chloro-2-biphenylyl)methyl]-1-ethyl-1H-pyrazolo[3,4-b]pyridine-5-carboxamide] | 8.2 to 9.6
4 | CCn1ncc2c(NC3CCN(C(N)=O)CC3)c(C(=O)NCc3ccccc3-c3ccc(C)cc3)cnc21 [Example 35, 4-{[1-(aminocarbonyl)-4-piperidinyl]amino}-1-ethyl-N-[(4′-methyl-2-biphenylyl)methyl]-1H-pyrazolo[3,4-b]pyridine-5-carboxamide] | 8.2 to 9.6
5 | CCn1ncc2c(NC3CCN(C(N)=O)CC3)c(C(=O)NCc3ccccc3-c3ccc(OC)cc3)cnc21 [Example 36, 4-{[1-(aminocarbonyl)-4-piperidinyl]amino}-1-ethyl-N-{[4′-(methyloxy)-2-biphenylyl]methyl}-1H-pyrazolo[3,4-b]pyridine-5-carboxamide] | 8.2 to 9.6
6 | CCn1ncc2c(NC3CCN(C(N)=O)CC3)c(C(=O)NCc3ccccc3-c3ccoc3)cnc21 [Example 37, 4-{[1-(aminocarbonyl)-4-piperidinyl]amino}-1-ethyl-N-{[2-(3-furanyl)phenyl]methyl}-1H-pyrazolo[3,4-b]pyridine-5-carboxamide] | 8.2 to 9.6
7 | CCn1ncc2c(NC3CCN(C(N)=O)CC3)c(C(=O)NCc3ccccc3-c3ccc(OC)nc3)cnc21 [Example 38, 4-{[1-(aminocarbonyl)-4-piperidinyl]amino}-1-ethyl-N-({2-[6-(methyloxy)-3-pyridinyl]phenyl}methyl)-1H-pyrazolo[3,4-b]pyridine-5-carboxamide] | 8.2 to 9.6
8 | CCn1ncc2c(NC3CCN(C(N)=O)CC3)c(C(=O)NCc3ccccc3-c3ccsc3)cnc21 [Example 39, 4-{[1-(aminocarbonyl)-4-piperidinyl]amino}-1-ethyl-N-{[2-(3-thienyl)phenyl]methyl}-1H-pyrazolo[3,4-b]pyridine-5-carboxamide] | 8.2 to 9.6
9 | CCn1ncc2c(NC3CCN(C(N)=O)CC3)c(C(=O)NCc3ccccc3-c3cscc3C)cnc21 [Example 40, 4-{[1-(aminocarbonyl)-4-piperidinyl]amino}-1-ethyl-N-{[2-(4-methyl-3-thienyl)phenyl]methyl}-1H-pyrazolo[3,4-b]pyridine-5-carboxamide] | 8.2 to 9.6
10 | CCn1ncc2c(NC3CCN(C(N)=O)CC3)c(C(=O)NCc3ccc(C)cc3-c3ccccc3)cnc21 [Example 41, 4-{[1-(aminocarbonyl)-4-piperidinyl]amino}-1-ethyl-N-[(5-methyl-2-biphenylyl)methyl]-1H-pyrazolo[3,4-b]pyridine-5-carboxamide] | 8.2 to 9.6
11 | CCn1ncc2c(NC3CCN(C(N)=O)CC3)c(C(=O)NCc3ccc(C)cc3-c3ccsc3)cnc21 [Example 42, 4-{[1-(aminocarbonyl)-4-piperidinyl]amino}-1-ethyl-N-{[4-methyl-2-(3-thienyl)phenyl]methyl}-1H-pyrazolo[3,4-b]pyridine-5-carboxamide] | 8.2 to 9.6
12 | CCn1ncc2c(NC3CCN(C(N)=O)CC3)c(C(=O)NCc3ccc(C)cc3-c3ccoc3)cnc21 [Example 43, 4-{[1-(aminocarbonyl)-4-piperidinyl]amino}-1-ethyl-N-{[2-(3-furanyl)-4-methylphenyl]methyl}-1H-pyrazolo[3,4-b]pyridine-5-carboxamide] | 8.2 to 9.6
13 | CCn1ncc2c(NC3CCN(C(N)=O)CC3)c(C(=O)NCc3ccc(C)cc3-c3cccc(Cl)c3)cnc21 [Example 44, 4-{[1-(aminocarbonyl)-4-piperidinyl]amino}-N-[(3′-chloro-5-methyl-2-biphenylyl)methyl]-1-ethyl-1H-pyrazolo[3,4-b]pyridine-5-carboxamide] | 8.2 to 9.6
14 | CCn1ncc2c(NC3CCC(C(N)=O)CC3)c(C(=O)NCc3ccc(Cl)cc3F)cnc21 (stereo not drawn) [Example 51, 4-{[4-(aminocarbonyl)cyclohexyl]amino}-N-[(4-chloro-2-fluorophenyl)methyl]-1-ethyl-1H-pyrazolo[3,4-b]pyridine-5-carboxamide] | 7.9 to 8.95
15 | CCn1ncc2c(NC3CCC(C(N)=O)CC3)c(C(=O)NCc3cccc4c3CCCC4)cnc21 (stereo not drawn) [Example 67, 4-{[4-(aminocarbonyl)cyclohexyl]amino}-1-ethyl-N-(5,6,7,8-tetrahydro-1-naphthalenylmethyl)-1H-pyrazolo[3,4-b]pyridine-5-carboxamide] | 7.9 to 8.95
